Data taken from the supplement of paper PMC3334620.
In all, about 33,000 sequences were measured (“E-score (-0.5 to 0.5)”: median about -0.041, highest 2% from about 0.37 on). The list shows a part of the results.

What follows are sequences tested against T1, Ecm22 (UniProt Q05958) (assay: PBM E-score (8-mer binding enrichment) (E-score (-0.5 to 0.5)); higher = stronger / more preferred TF binding; most listed sequences are background and not binding sites). Conditions: protein concentration: 200 nM; construct: GST-full length.
T1 sequence: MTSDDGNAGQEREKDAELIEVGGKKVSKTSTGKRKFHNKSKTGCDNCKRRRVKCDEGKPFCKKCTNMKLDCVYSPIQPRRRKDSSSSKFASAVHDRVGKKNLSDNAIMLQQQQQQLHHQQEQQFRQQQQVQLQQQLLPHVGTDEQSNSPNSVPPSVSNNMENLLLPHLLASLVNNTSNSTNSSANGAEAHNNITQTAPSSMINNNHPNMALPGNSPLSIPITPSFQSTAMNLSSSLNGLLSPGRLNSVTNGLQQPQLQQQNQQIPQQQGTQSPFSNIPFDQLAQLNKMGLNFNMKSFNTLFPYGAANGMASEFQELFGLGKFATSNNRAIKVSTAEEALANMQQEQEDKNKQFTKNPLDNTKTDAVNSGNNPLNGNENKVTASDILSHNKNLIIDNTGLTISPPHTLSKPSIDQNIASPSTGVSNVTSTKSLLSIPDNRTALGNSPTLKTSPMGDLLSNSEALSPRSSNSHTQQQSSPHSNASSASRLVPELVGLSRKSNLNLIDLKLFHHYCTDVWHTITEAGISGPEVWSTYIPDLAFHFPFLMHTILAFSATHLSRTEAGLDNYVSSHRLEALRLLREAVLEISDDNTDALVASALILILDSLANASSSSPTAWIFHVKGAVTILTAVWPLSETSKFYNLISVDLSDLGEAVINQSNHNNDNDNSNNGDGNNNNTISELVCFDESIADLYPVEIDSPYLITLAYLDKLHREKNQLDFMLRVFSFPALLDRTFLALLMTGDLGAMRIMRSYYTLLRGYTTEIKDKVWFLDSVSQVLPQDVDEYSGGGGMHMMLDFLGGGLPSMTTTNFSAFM
Summary of the method: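 Full-length yeast transcription factors or their DNA-binding domains, GST-tagged and expressed with PURExpress, were applied at about 100-200 nM to universal all-10-mer Agilent arrays. These arrays had been made double-stranded by primer extension on fresh or once-stripped slides. Detection used fluorescent anti-GST, normalisation used masliner, and E-scores for ungapped eight-base words pooled with reverse complements came from the Universal PBM Analysis Suite.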

Sequence	PBM E-score
GACTGTCC	-0.0668
GCCGGCCC	-0.211
ATTGCAAA	-0.0382
CGTAAGTC	0.203
ACCATTCG	-0.0649
AATCTGAG	-0.116
CTTTAAAA	-0.0237
GAGTATAC	0.286
GTGCCCAA	-0.204
ACGGTCTG	0.0887
CAATACGA	0.403
GCCTTGCC	-0.135
CAGCTACA	-0.1
GACTAAGC	0.037
AGCTAGTC	-0.0169
CATCTCGC	0.269
AACTGTCA	-0.107
ACCTGCAG	-0.0186
AGTTGCGA	0.0752
CCCTCGAG	-0.326
AAGACGTC	0.00719
CCTATGAG	-0.296
AGAGCGAC	0.213
AGATGACG	0.0355
AAAAACGC	0.0905

Sequence	PBM E-score
GAGTTGCC	-0.00797
ACCCTTGA	-0.18
ACAGTGTA	0.0291
ACAATGCG	-0.011
TAAAGTGA	0.128
ACGGTAAA	0.16
ACTCCAAG	-0.208
GCGGTCAA	-0.136
CCGCGGTC	-0.0499
AAGATAAT	-0.0266
CATATTTA	0.0517
GCCCTAGC	-0.298
TCACGTCA	-0.108
GTCTAGCA	-0.0831
TTTGCAAA	0.164
AGTGGGGC	-0.234
GAAGTGCA	-0.079
AGCCGACT	0.00785
ACAAACAG	-0.0621
TCTGGGCA	-0.293
TGAAGACA	0.0768
GATAAGAA	0.0155
CCCGGCCA	-0.316
CGCGCCGA	0.123
AGCCGTAC	0.369

Sequence	PBM E-score
CGAGCATC	0.223
AGAACGAA	0.422
ACGTCCAC	-0.0555
AGCATAAA	-0.135
GAACCAAA	-0.116
ACCGAAAT	0.15
AGCCACCC	-0.139
AAAGGTAT	0.00139
AGCAGTCG	0.102
GCTGCGCC	-0.26
CAACTAAG	0.0643
AGCCCTTC	-0.206
TTACGTAA	0.164
CAAGTCTC	-0.105
CAGCTGCA	-0.385
AGTAGGAC	-0.254
TGCCACCA	-0.217
ACTGATAG	-0.156
ACGTTAAG	0.143
ACCTAAGC	-0.008
CGGATACC	0.0623
AGATCAGA	-0.14
CGTTCTCC	0.223
GGTGCTCA	-0.0745
AATCTAGA	-0.142

Sequence	PBM E-score
CGGACCGC	0.139
AGAAGCAC	-0.22
ATCTAACG	0.0414
ATCAGAGA	-0.127
AATCACTC	-0.0499
CATTCTAA	-0.019
ACGCACCA	0.0808
TACTATCA	0.121
ACCCGCGT	0.0617
GGGGCAGA	-0.0715
CATATACC	-0.0901
GTTTCGCA	0.204
GAAGTGTC	-0.055
ACTGAGTG	0.0538
AGGTTTCA	-0.106
ACTAAGCA	-0.146
CCTGCTGC	-0.19
AGAAGGAA	-0.0762
AGATAGCA	-0.224
AGCGTTAA	0.064
ACGTGTTA	0.113
GACTTTAC	0.145
CTAGGCGA	-0.00766
ATTGTTCA	0.01
ACGGGAAC	0.309

Sequence	PBM E-score
CGATAGTA	0.00622
CTACATGA	-0.136
CTGTTTGC	0.0586
TAGCGCGA	0.119
AGGCCACG	-0.0485
CGATTGAA	0.0465
CTGACGGC	-0.199
AATTACGC	0.019
ATCACAGA	-0.036
AGGCAAAA	-0.196
AGCCAGAT	-0.098
GGAACTAA	0.12
AACGGACC	0.287
ACCGAGAG	0.212
GGGCGTGA	-0.0475
CCGAAGAG	0.165
GCCGCTTA	0.128
GTCGACAA	-0.096
TATACAAA	0.106
CCAATGAG	-0.157
AGCTGTCG	0.224
ACAAGTTC	0.0124
ACCCCCAT	-0.186
ATATGTCC	0.0213
CCGCACTA	0.0774

Sequence	PBM E-score
CTTCCTAA	-0.0861
CCGAACCC	-0.0919
CGTGGGAG	-0.0456
TAATCCAA	-0.0649
CCCTCTCA	-0.297
ACTCGAAG	-0.196
CCCCAAAC	-0.0762
CCCGAGTA	0.0355
ACTCTGTC	0.0162
ATACTTTC	-0.00925
GCCACGAA	-0.0254
CTTGATAA	-0.116
GTCAGCAC	-0.103
CGCTCGCA	0.287
AAAACAGA	0.0336
TATAATCA	0.0314
CAGGACAC	-0.182
ATCAACGA	0.157
AACAACCG	0.184
AAATATAT	0.0892
TGCTGACA	-0.0974
CGCAAAAA	0.231
CAAGAATC	-0.0456
GCCAAGTA	-0.0261
CGCTACTA	0.131

Sequence	PBM E-score
AACACCCA	-0.125
ACATTGCG	-0.00816
ATTCGTGA	-0.00041
GCACGAAA	0.103
GCGCTGTA	-0.0662
GCAGCCGA	-0.0601
GAGTGCCA	-0.223
ATAGAGAT	0.0778
ATCATATC	0.143
GACAATGA	-0.154
GGTCTTCA	-0.13
CAAGCCGA	0.0727
AAATGTAT	0.147
CAGATGTA	-0.283
AACATTAT	-0.0277
AAGCACAG	-0.135
AACAGTCG	0.0423
AAAGCAAC	0.0163
GGGGATAA	-0.0248
ACTCCGGG	-0.0622
CCCTTCGC	0.0525
TCTAGCCA	-0.165
